# The whole screen tested about 310,000 compounds, of which about 18,000 (5.8%) were called active. This list was built around the results that the source calls inconclusive (neither active nor inactive); the mix of calls is not that of the screen. The call rests on the fitted dose curve; in most records, active means well fitted inhibition curve with a large enough effect; inconclusive means small, poorly fitted or top-dose-only effect, or another doubt; inactive means no such curve, though single readings can be large or run the other way. Potencies of inconclusive entries are left out as doubtful fits.
# Experiment: Primary qHTS for delayed death inhibitors of the malarial parasite plastid, 48 hour incubation
# Settings: P. falciparum luciferase growth in erythrocytes; series mostly up to 28.7 µM; activity change, negative = inhibition: at the top concentration
# Outline: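 Cell-based growth assay: transgenic P. falciparum expressing firefly luciferase, cultured in red cells within RPMI 1640 containing 0.5% w/v Albumax, 24 mM bicarbonate and gentamycin. A drop in luciferase activity indicates inhibition.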
# On the % scale 0 is the no-effect control and ±100 the full control effect; potency means the concentration at half of the fitted maximal effect; tags describe the fitted curve by direction and shape.
Structure (SMILES),Potency,"activity change, negative = inhibition"
COc1ccc2sc(-c3ccccc3OC)c(-c3ccc4c(c3)OCCO4)c2c1,active: 10.4 µM,–
O=C(Nc1ccnn1C1CCN(Cc2ccc3nonc3c2)CC1)c1cccc(F)c1,"inconclusive [inhibitor, single point]",–
CC#CCOC(=O)c1c(C)nc2sc3c(c2c1N)CCC(O)C3 (centres undefined),"inconclusive [inhibitor, single point]",–
O=C(CSc1nccn(-c2ccc3c(c2)OCCO3)c1=O)Nc1ccccc1,–,inactive: 38.9%
COc1cccc(NC(=O)C2CCN(S(=O)(=O)c3ccc4c(c3)N(C(C)=O)CCO4)CC2)c1,"inconclusive [inhibitor, partial curve]",–
CCN(CC)CCNC(=O)c1ccc2c(c1NCCO)C(=O)c1ccccc1C2=O,active: 2.62 µM,–
CN(CC(=O)Nc1ccc(Cl)cc1)C1=NS(=O)(=O)c2ccccc21,"inconclusive [inhibitor, single point]",–
O=c1[nH]c(-c2ccccn2)nc2sc(-c3ccccc3)cc12,–,inactive: 62.5%
COc1cc(N)ccc1NC(=O)c1cccs1,"inconclusive [inhibitor, single point]",–
CCN(CC)S(=O)(=O)c1ccc(N2CCCC2)c(NC(=O)C2=NN(c3ccccc3)C(=O)CC2)c1,active: 10.4 µM,–
CN(C)c1ccc(NC(=O)CN2CCC(C(=O)c3ccc(F)cc3)CC2)cc1,"inconclusive [inhibitor, partial curve, poor fit]",–
CSCCC(NC(=O)COc1ccccc1)C(=O)N1CCC(C(N)=O)CC1 (centres undefined),"inconclusive [inhibitor, partial curve, poor fit]",–
Cc1ccccc1CSCCNC(=S)Nc1ccccc1,"inconclusive [inhibitor, single point]",–
C=CCC(NC(=O)Cc1ccccc1)C(=O)NCCC (centres undefined),–,inactive: 20.5%
Cc1ccc(C)c(NC(=O)CN2C(=O)COc3ccc(S(=O)(=O)N4CCCC4)cc32)c1,"inconclusive [inhibitor, partial curve]",–
COc1ccc(NC(=O)CSc2nnc(Cc3cccn3C)n2CCc2ccccc2)c(OC)c1,"inconclusive [inhibitor, partial curve, poor fit]",–
O=C(O)c1ccc(NS(=O)(=O)/C=C/c2ccccc2)cc1,"inconclusive [inhibitor, partial curve, poor fit]",–
CN=C(Nc1cccc(Cl)c1)SC1CC(=O)N(c2ccc(OC)cc2)C1=O (centres undefined),"inconclusive [inhibitor, single point]",–
OCCN1CCN(c2cc(C(F)(F)F)nc3c(F)cccc23)CC1,"inconclusive [inhibitor, single point]",–
CCOc1ccc(/C=C(\C(=O)O)c2ccc(S(=O)(=O)N3CCOCC3)s2)cc1OC,–,inactive: -6.23%
CC(=O)NC(Cc1ccc(C)cc1)C(=O)NC1CCN(S(=O)(=O)c2ccccc2)CC1 (centres undefined),–,inactive: 4.91%
CCN(CC)S(=O)(=O)c1cccc(-c2nnc(SCC#N)n2Cc2ccccc2)c1,"inconclusive [inhibitor, partial curve, poor fit]",–

Structure (SMILES),Potency,"activity change, negative = inhibition"
Cc1ccc(NS(=O)(=O)c2ccc3c(c2)NC(=O)CCS3)c(Br)c1,active: 6.57 µM,–
CCC(C(=O)Nc1ccc(S(=O)(=O)N(C)C2CCN(C)CC2)cc1)c1ccccc1 (centres undefined),"inconclusive [inhibitor, single point]",–
CSc1nnc(-c2ccc(S(=O)(=O)N3CCOCC3)cc2)n1C,–,inactive: 3.15%
CN(c1ccccc1)S(=O)(=O)c1ccc(NC(=O)COc2ccccc2)cc1,–,inactive: 28.6%
CCCCC1=CC2=C(c3ccco3)C(=O)C(C)(OC(=O)c3ccc(OC)cc3)C(=O)C2=CN1CCOC (centres undefined),"inconclusive [inhibitor, single point]",–
O=C(NCc1ccccc1Cl)C1CCCN1C(=O)NCc1ccccc1 (centres undefined),"inconclusive [inhibitor, single point]",–
N#Cc1nc(COc2ccccc2)oc1N1CCN(c2cccc(Cl)c2)CC1,"inconclusive [inhibitor, single point]",–
Cc1ccc(C(=O)CN2CCC(NC(=O)C3CCCCC3)CC2)cc1,"inconclusive [inhibitor, single point]",–
CC(C)(C)OC(=O)NCCCCCNC(=O)c1[nH]cnc1C(=O)Nc1nccs1,"inconclusive [inhibitor, single point]",–
O=C(N/N=C/c1c(O)n(Cc2ccccc2)c(=O)[nH]c1=O)c1ccncc1,"inconclusive [inhibitor, single point]",–
Nc1nc(SCC(=O)NCCO)nc2sc3c(c12)CCCC3,–,inactive: 22.6%
Cc1cc(-c2nnc(CCC(=O)N(CC3CC3)CC3CCCO3)o2)no1 (centres undefined),–,inactive: 37.9%
Cc1cc(NC(=O)C(C)SCC(=O)Nc2cc(C(F)(F)F)ccc2N2CCOCC2)no1 (centres undefined),–,inactive: -7.87%
O=C(/C=C/c1cccc([N+](=O)[O-])c1)Nc1cc(C(=O)O)cc(C(=O)O)c1,"inconclusive [inhibitor, full curve, poor fit]",–
COc1cc(/C(C)=N/NC(=O)CSc2nnc(C)s2)ccc1O,–,inactive: 3.78%
Cc1ccc(-c2nn3c(C)nnc3c3ccccc23)cc1S(=O)(=O)NC(C)c1ccccc1 (centres undefined),"inconclusive [inhibitor, partial curve]",–
CC1(C)Cc2cccc(Oc3cc(NN4CCCCC4)c([N+](=O)[O-])cc3[N+](=O)[O-])c2O1,"inconclusive [inhibitor, full curve, poor fit]",–
CCOC(=O)C(C)Sc1ncnc2c1c(-c1ccccc1)cn2-c1ccc(OC)cc1 (centres undefined),"inconclusive [inhibitor, single point]",–
O=C(NCCS(=O)(=O)NCc1ccccc1Cl)c1ccccc1,–,inactive: 46.7%
Cc1cccc(NC(=S)N/N=C2/CCCCc3ccccc32)c1,"inconclusive [inhibitor, single point]",–
COc1ccccc1CNC(=O)Cn1cccc1,–,inactive: -6.57%
CC(=O)N1c2ccc(S(=O)(=O)N3CCC(C(=O)N4CC(C)CC(C)C4)CC3)cc2CC1C (centres undefined),"inconclusive [inhibitor, partial curve]",–

# Reference: PubChem BioAssay AID504832 (National Center for Advancing Translational Sciences (NCATS), 2011)
